Laboratory results reported in the antibiotic and cytotoxicity screens of Wong et al. (2023).
The other results are listed elsewhere or left out.

Tested on: S. aureus RN4220
Assay: growth inhibition call (relative growth <= 0.2)
Details: 50 µM

Growth inhibition call, inactive:
O=C(O)CC(O)(CC(=O)O)C(=O)O.[LiH].[LiH].[LiH], C[C@@H]1CCCCO[C@@H](CN(C)C(=O)Nc2ccc(C(F)(F)F)cc2)[C@H](C)CN([C@H](C)CO)C(=O)c2cc(NC(=O)Nc3ccc(F)cc3)ccc2O1, Cc1cc2nc(C(=O)NC[C@H]3CCCS(=O)(=O)C3)cc(-c3ccccc3Cl)c2c(C)c1-c1ccncc1, CCCOc1ccc(=O)n(C)n1, NCc1ccc(-c2ncccn2)cc1, C[C@@H]1CN([C@@H](C)CO)C(=O)c2cccc(NS(=O)(=O)c3ccc(F)cc3)c2O[C@H]1CN(C)S(=O)(=O)c1ccc(F)cc1, C=C[C@](C)(CC[C@@]1(C)[C@H](C)C[C@H](O[C@@H]2O[C@@H](C)[C@H](O)[C@@H](O[C@@H]3O[C@H](CO[C@@H]4O[C@@H](C)[C@H](O)[C@@H](O)[C@H]4O)[C@@H](O)[C@H](O)[C@H]3O)[C@H]2O)[C@@]2(C)C(C)=CCC[C@H]12)O[C@@H]1OC[C@H](O)[C@H](O)[C@H]1O[C@@H]1O[C@@H](C)[C@H](O)[C@@H](O)[C@H]1O, C[C@H]1CN([C@@H](C)CO)C(=O)Cc2cc(NS(=O)(=O)c3ccccc3)ccc2O[C@H]1CN(C)Cc1ccc(C(=O)O)cc1, COc1ccc(NC(=O)Nc2ccc3c(c2)C(=O)N([C@@H](C)CO)C[C@H](C)[C@@H](CN(C)S(=O)(=O)c2ccc(F)cc2)OCCCC[C@H](C)O3)cc1, O=C(CNc1ccc2c(c1)oc1ccccc12)c1ccc(F)cc1, C[C@H]1CN([C@@H](C)CO)C(=O)Cc2cc(NC(=O)C3CC3)ccc2O[C@@H]1CN(C)C(=O)Nc1ccccc1, C[C@@H]1CCCCO[C@@H](CN(C)C(=O)Nc2ccccc2)[C@H](C)CN([C@H](C)CO)C(=O)c2cc(NC(=O)NC3CCCCC3)ccc2O1, C[C@@H]1CN([C@@H](C)CO)C(=O)Cc2cc(NS(=O)(=O)c3cn(C)cn3)ccc2O[C@@H]1CN(C)Cc1ccncc1, OCCN(CCO)c1nc2ccccc2[nH]1, CCCNC(=O)[C@@]1(Sc2ccc(C)cc2)CC(=O)N(Cc2ccccc2C(F)(F)F)[C@@H]1c1ccc(CO)cc1
